# Values joined by “and” are separate entries in the source; they are usually repeats but may differ in a detail not shown here. Equal entries are not always repeated. The campaign covered roughly 350,000 compounds. About 31,000 (8.9%) were called active. The inconclusive results got no clear call from the source; some entries with a clear call stand among them for comparison. Calls come from the whole dose curve; as a rule, active = well fitted inhibition curve with a large enough effect; inconclusive = small, poorly fitted or top-dose-only effect; inactive = no such curve, though single readings can be large or run the other way. A potency beside an inconclusive call is a rough fit, not a confirmed value. Some compounds were tested as several samples or in several runs, with calls that do not always agree.
# Target: Histone-lysine N-methyltransferase EHMT2 (Homo sapiens) (UniProt Q96KQ7)
# Test: qHTS Assay for Inhibitors of Histone Lysine Methyltransferase G9a; note: nearly all actives have a fitted effect of over 75% in size
# Conditions: G9a H3K9 monomethylation, AlphaScreen, 2 h; activity, negative = inhibition: at 59 µM (top of the series) unless noted
# How it was run: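 Quantitative HTS format: methyltransferase activity on a biotin-tagged H3K9 peptide is measured by AlphaScreen, using a rabbit anti-monomethyl-H3K9 antibody with streptavidin donor and anti-IgG acceptor beads. Final levels are 20 nM enzyme, 500 nM peptide, 20 uM SAM; 2 h RT.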
# % is set by controls: 0 for no effect and ±100 for the full control effect; potency is the fitted concentration of half-maximal effect; tags give direction and shape of the fitted curve.
# Chain of UniProt Q96KQ7 (Q96KQ7 whole entry, looked up): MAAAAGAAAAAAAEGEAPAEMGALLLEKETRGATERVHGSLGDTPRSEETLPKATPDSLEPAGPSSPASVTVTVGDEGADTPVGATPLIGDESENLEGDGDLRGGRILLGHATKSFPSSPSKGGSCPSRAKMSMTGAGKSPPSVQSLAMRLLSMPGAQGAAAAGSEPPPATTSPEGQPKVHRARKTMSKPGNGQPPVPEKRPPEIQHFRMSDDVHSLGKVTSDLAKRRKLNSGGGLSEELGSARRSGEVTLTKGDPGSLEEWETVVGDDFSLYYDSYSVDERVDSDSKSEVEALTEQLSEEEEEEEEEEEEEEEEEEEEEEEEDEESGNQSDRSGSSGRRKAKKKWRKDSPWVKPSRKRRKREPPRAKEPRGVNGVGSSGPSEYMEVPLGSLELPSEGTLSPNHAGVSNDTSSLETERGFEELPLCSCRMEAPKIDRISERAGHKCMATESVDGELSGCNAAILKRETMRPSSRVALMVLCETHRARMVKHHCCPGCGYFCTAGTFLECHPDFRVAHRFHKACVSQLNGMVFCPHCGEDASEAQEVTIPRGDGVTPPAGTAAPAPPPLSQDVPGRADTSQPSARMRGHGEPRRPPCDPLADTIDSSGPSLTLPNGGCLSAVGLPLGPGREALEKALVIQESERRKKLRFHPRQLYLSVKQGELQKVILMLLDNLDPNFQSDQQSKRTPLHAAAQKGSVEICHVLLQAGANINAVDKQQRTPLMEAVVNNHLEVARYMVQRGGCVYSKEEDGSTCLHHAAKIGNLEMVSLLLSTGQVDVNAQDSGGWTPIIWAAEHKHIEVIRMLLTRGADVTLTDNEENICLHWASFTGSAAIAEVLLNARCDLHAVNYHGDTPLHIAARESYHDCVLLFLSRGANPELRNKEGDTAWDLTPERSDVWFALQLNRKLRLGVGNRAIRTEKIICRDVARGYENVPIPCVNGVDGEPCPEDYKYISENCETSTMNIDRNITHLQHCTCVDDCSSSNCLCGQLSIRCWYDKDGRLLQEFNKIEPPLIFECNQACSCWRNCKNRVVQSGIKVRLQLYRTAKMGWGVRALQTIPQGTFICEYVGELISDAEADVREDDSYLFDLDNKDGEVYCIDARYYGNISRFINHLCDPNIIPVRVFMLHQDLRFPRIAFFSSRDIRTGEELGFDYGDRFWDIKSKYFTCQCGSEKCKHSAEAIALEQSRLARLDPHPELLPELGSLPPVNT
Structure (SMILES),"activity, negative = inhibition",Potency
CC1=C(C#N)c2nc(N)c(C#N)c(C)c2/C1=C\c1ccc(C)cc1,inactive: -3.08% [at 0.501 µM],
COc1cc(C)c(NC(=S)NCCCN2CCOCC2)cc1OC,,active: 35.5 µM
CC(C)(C)CC(C)(C)c1ccc(OCC(=O)Nc2ccc(S(=O)(=O)Nc3ncccn3)cc2)cc1,,"inconclusive: 31.6 µM [inhibitor, single point]"
Nc1ccc(N2CCCCC2)c(S(=O)(=O)Nc2ccc(Cl)cc2)c1,,"inconclusive: 35.5 µM [inhibitor, partial curve, poor fit]"
O=c1[nH]c(/C=C\c2cccs2)nc(O)c1[N+](=O)[O-],,"inconclusive: 39.8 µM [inhibitor, partial curve]"
O=C(CSc1ccc2nnc(-c3ccccn3)n2n1)NCc1ccco1,,"inconclusive: 39.8 µM [inhibitor, single point]"
CCOc1c(O)ccc(/C=C2\SC(=S)NC2=O)c1[N+](=O)[O-],,active: 14.1 µM
COc1ccc(NC(=O)c2cc([N+](=O)[O-])ccc2N2CCCCC2)cc1,,"inconclusive: 89.1 µM [inhibitor, single point]"
CC1CCc2[nH]c3ccc(C(=O)NCCCOC(C)C)cc3c2C1 (centres undefined),,"inconclusive: 39.8 µM [inhibitor, single point]"
CCC1(C)Nc2ccccc2C(=O)N1O (centres undefined),,active: 50.1 µM
COc1ccc(N2CCN(S(=O)(=O)c3ccc(-c4cnc(C5CC5)o4)cc3)CC2)cc1,,"inconclusive: 89.1 µM [inhibitor, single point]"
Clc1cccc(CN2CCN(Cc3ccco3)CC2)c1,,active: 7.94 µM
CCOc1ccc2nc(NS(C)(=O)=O)sc2c1,,active: 7.08 µM
COC(=O)CCC(=O)Nc1cc(S(=O)(=O)Nc2ccc(Cl)cc2)ccc1N1CCOCC1,,"inconclusive: 25.1 µM [inhibitor, single point]"
Cc1ccc(C(=O)OCC(=O)NCc2ccco2)cc1,,"inconclusive: 44.7 µM [inhibitor, partial curve]"
COCCNC(=O)CCCCCN1C(=O)CCC1=O,,"inconclusive: 39.8 µM [inhibitor, partial curve, poor fit]"
COc1ccc(CC(=O)N2CCOCC2)cc1OC,inactive: -2.96%,
CC(=O)c1cc2c(cc1O)OC(C)(C)C=C2,inconclusive: -51.8% [inhibitor] [at 2.33 µM],
CC(C)C(=O)n1nc(-c2cccnc2)nc1NCc1cccs1,,"inconclusive: 22.4 µM [inhibitor, partial curve, poor fit]"
O=C(CSc1nc(-c2ccco2)cc(C(F)(F)F)n1)N1CCN(c2ccc(Cl)cc2)CC1,,"inconclusive: 39.8 µM [inhibitor, single point]"
CCOC(=O)C1=C[C@]2(CC)CCCN3CCc4c(n1c1ccccc41)[C@@H]32,inactive: 22.7% [at 12.7 µM],active: 22.4 µM
Cc1ccccc1-c1noc(-c2ccccc2C(=O)NCc2ccco2)n1,,"inconclusive: 50.1 µM [inhibitor, partial curve]"
CC(=O)N1CCN(Cc2nc3cc(NC(=O)c4ccc(Cl)cc4)ccc3n2C)CC1,,"inconclusive: 89.1 µM [inhibitor, single point]"

Structure (SMILES),"activity, negative = inhibition",Potency
CCCCCCOC(=O)c1ccc(NC(=O)c2cc(OC)c(OC)c(OC)c2Br)cc1,,"inconclusive: 25.1 µM [inhibitor, partial curve, poor fit]"
Cc1nc2ccccc2c(=O)n1NC(=O)c1c(O)c2ccccc2n(C)c1=O,,"inconclusive: 1.78 µM [inhibitor, partial curve, poor fit]"
CCCN1CCC(NC(=O)Nc2ccc(OC)c(OC)c2)CC1,inactive: -17.5% [at 12.7 µM],
Nc1c(Cl)cc(C2=NCCn3nc4ccccc4c32)cc1Cl,inconclusive: -152% [inhibitor] [at 2.33 µM],
Cc1ccc(CN(C)C(=O)c2cccc(S(=O)(=O)N3CCc4ccccc4C3)c2)o1,inactive: 8.31% [at 2.33 µM],
COc1ccc(NC(=O)COC(=O)CCCc2c[nH]c3ccccc23)cc1,,"inconclusive: 39.8 µM [inhibitor, partial curve, poor fit]"
O=C(Cn1cnc([N+](=O)[O-])c1)NCCc1ccccc1,,active: 28.2 µM
Oc1ccc(-c2nc3ccc(Cl)cn3c2Nc2ccc3c(c2)OCO3)cc1,,"inconclusive: 7.08 µM [inhibitor, partial curve, poor fit]"
O=C1Nc2ccc(Br)cc2C12NNc1ccccc1O2 (centres undefined),,"inconclusive: 44.7 µM [inhibitor, partial curve, poor fit]"
COc1ccc(C(=O)NC(=S)Nc2ccc(S(N)(=O)=O)cc2)cc1,,"inconclusive: 56.2 µM [inhibitor, partial curve, poor fit]"
NC(=O)CC(NC(=O)Cc1ccc(Cl)cc1)c1ccc(NCC2CC2)c([N+](=O)[O-])c1 (centres undefined),inconclusive: -64.5% [inhibitor],
O=C(NCCc1c[nH]c2ccccc12)c1cc([N+](=O)[O-])cc([N+](=O)[O-])c1,,active: 10 µM
CCN(c1ccccc1)S(=O)(=O)c1ccc(Cl)c(NC(=O)CSc2ncn[nH]2)c1,,"inconclusive: 89.1 µM [inhibitor, single point]"
O=c1[nH]n2c(=O)c3c([nH]c2c1N=Nc1cccc(Cl)c1)CCCC3,,"inconclusive: 8.91 µM [inhibitor, full curve, poor fit]"
COc1ccc(C2C3=C(CCCC3=O)Nc3nc(-c4cc(OC)c(OC)c(OC)c4)nn32)cc1OC (centres undefined),,active: 39.8 µM
COc1ccc(OCC(=O)OCCNC(=O)c2cccnc2)cc1,,active: 31.6 µM
COc1ccc2c(c1)N(C)/C(=C/c1cccc[n+]1C)S2,,active: 35.5 µM
Oc1ccc(-c2nc3ccc4ccccc4c3c3c2CCC3)cc1O,,"inconclusive: 22.4 µM [inhibitor, single point]"
O=C(c1ccc2ncsc2c1)N1CCCC(C(F)(F)F)C1 (centres undefined),,"inconclusive: 89.1 µM [inhibitor, partial curve, poor fit]"
O=C1C=CC(=O)N1c1ccc(Sc2ccc([N+](=O)[O-])cc2)cc1,,active: 8.91 µM
CC(=O)c1ccc(NC(=O)Cn2ncc3c4ccccc4n(Cc4ccccc4)c3c2=O)cc1,inactive: 6.86%,
O=C(Cc1c(F)cccc1Cl)N1CCN(S(=O)(=O)c2cccc(F)c2)CC1,,"inconclusive: 89.1 µM [inhibitor, single point]"
O=C(OCCN1CCCCC1)c1cccc(F)c1,,"inconclusive: 89.1 µM [inhibitor, single point]"

Structure (SMILES),"activity, negative = inhibition",Potency
COC(=O)c1cc(S(=O)(=O)NCCN2CCN(c3ccccc3F)CC2)c[nH]1,inactive: 4.67%,
Cc1cnc(C(=O)Nc2nnc(C(C)C)s2)cn1,,active: 1 µM
CCOCCCN(C)C1CCN(S(=O)(=O)c2csc(C(N)=O)c2)CC1,inactive: 20.1% [at 102 µM],
Cn1c(=O)c2c(ncn2Cc2ccc(Cl)cc2)n(C)c1=O,,inactive
O=C(Cn1c(=O)n2nc(-c3cccc(F)c3)nc2c2ccccc21)N1CCN(c2ccc(F)cc2)CC1,inactive: -9.25%,
COc1ccc([N+](=O)[O-])cc1NC(=S)Nc1ccccc1,,"inconclusive: 100 µM [inhibitor, single point]"
c1ccc(N2CCN(c3nc(-c4ccccn4)nc4ccccc34)CC2)cc1,,"inconclusive: 44.7 µM [inhibitor, partial curve]"
CCN1CCN(C(c2ccccc2Cl)c2c(O)cc(C)n(Cc3ccco3)c2=O)CC1 (centres undefined),,"inconclusive: 25.1 µM [inhibitor, single point]"
CCOc1ccc(S(=O)(=O)N(C)CC(=O)NCc2ccc3c(c2)OCO3)cc1,inactive: -10.9% [at 102 µM],
CC(=O)Nc1ccc2c(CSc3nnc(-c4cccnc4)n3-c3ccc(C)cc3C)cc(=O)oc2c1,,active: 8.91 µM
Cn1c(SCC(=O)N2CCOCC2)nnc1-c1cccc(NC(=O)c2ccccc2F)c1,inconclusive: -59.8% [inhibitor],
O=C(CSc1ccc(-c2ccccn2)nn1)NC1CCCC1,inactive: -23.9% [at 102 µM],
CC(C)NS(=O)(=O)c1ccc(OCC(=O)NC2CCCCCC2)cc1,,"inconclusive: 89.1 µM [inhibitor, single point]"
O=C(c1ccc2c(c1)N(Cc1cccc(Cl)c1)C(=O)c1ccccc1S2=O)N1CCN(c2cccc(C(F)(F)F)c2)CC1 (centres undefined),inactive: -1.51%,
O=C(CSc1nc2cc(S(=O)(=O)N3CCOCC3)ccc2o1)Nc1c(F)cccc1F,,active: 3.98 µM
O=C1CCc2cc(S(=O)(=O)NCc3ccc(F)cc3)cc3c2N1CCC3,,"inconclusive: 89.1 µM [inhibitor, partial curve, poor fit]"
C/C=C(\C)c1nnc(NC(=O)OCC)s1,,"inconclusive: 35.5 µM [inhibitor, partial curve, poor fit]"
Cc1ccc(N(C)C(=O)CN2C(=O)CCc3cc(S(=O)(=O)N4CCOCC4)ccc32)cc1,,"inconclusive: 3.16 µM [inhibitor, single point]"
Cc1ccccc1NC(=O)c1ccc2ccccc2c1,inactive: 5.81% [at 102 µM],
COc1ccc(N2CCN(C(=O)CNS(=O)(=O)c3ccc(Br)s3)CC2)cc1,,"inconclusive: 31.6 µM [inhibitor, single point] and inconclusive: 20 µM [inhibitor, single point]"
COCCCN=C1NN=C(c2cc(C)n(Cc3ccco3)c2C)CS1,,"inconclusive: 35.5 µM [inhibitor, single point]"
CCC(=O)Nc1ccc(C(=O)n2ccc(C)n2)cc1,,"inconclusive: 70.8 µM [inhibitor, partial curve]"
